Our source for the binding signal values is PMC6212790.

The other results are listed elsewhere or left out. At the low end of the ranking the order means little.

This assay concerns the target T1, GST-Rok (full length) (UniProt O34857).
T1 sequence: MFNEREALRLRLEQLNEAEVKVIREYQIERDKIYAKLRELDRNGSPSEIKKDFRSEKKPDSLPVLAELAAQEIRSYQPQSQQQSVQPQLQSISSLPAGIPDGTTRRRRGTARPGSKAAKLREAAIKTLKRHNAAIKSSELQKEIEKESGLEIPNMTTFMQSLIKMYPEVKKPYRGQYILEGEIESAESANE
The assay can be described thus: protein binding microarray.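 Also: rank score from −0.5 (least bound) to 0.5 (best bound).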 Particulars: Rok is a gene silencer of Bacillus subtilis; high values mean tight binding; most listed sequences are background and not binding sites; double strand, one strand shown.
Turning to CACCAATG, the binding signal is 0.0402 E-score.

ACTCTGCG gave a binding signal of 0.0598 E-score.

Turning to ACACAGCG, the binding signal worked out at 0.0555 E-score.

ACCCGAGC: the binding signal is -0.124 E-score.

On to ACAGAACG, for which the binding signal was determined as 0.0952 E-score.

Regarding AGCCTCCT, the binding signal was -0.351 E-score.

Turning to CCGTTATA, the binding signal was 0.156 E-score.

For the sequence AGACTAGG, the binding signal was 0.0924 E-score.

As for ATCAGGTG, the binding signal came to 0.12 E-score.

In turn, CTTTTATA yielded a binding signal of 0.24 E-score.

In the case of TAGGCCTA, the binding signal was -0.0356 E-score.

As for ACACTATA, the binding signal was 0.245 E-score.

As for GGAAGGGA, the binding signal is -0.339 E-score.

In the case of GTATGTTA, the binding signal came to 0.283 E-score.

GGCTCACC showed a binding signal of -0.296 E-score.

CATGAGCG: the binding signal was -0.206 E-score.

As for CTTACTCA, the binding signal was -0.0171 E-score.

CGCACAGC: the binding signal is -0.265 E-score.

For the sequence CGGATACG, the binding signal came to 0.0214 E-score.

CCGGGCGA showed a binding signal of -0.446 E-score.

TTCCCGAA had a binding signal of -0.0943 E-score.

For CAAATAGG, the binding signal was -0.0651 E-score.

Turning to AATCGAAA, the binding signal stood at 0.0382 E-score.

Consider GATTCTGC, for which the binding signal was -0.0394 E-score.

In turn, ATTCCACG returned a binding signal of 0.0366 E-score.

Regarding AGTGTCCC, the binding signal is -0.241 E-score.

With GGCAACAA, the binding signal is -0.107 E-score.

The sequence AATAAGAG gave a binding signal of 0.143 E-score.

The sequence CCCTAACA displayed a binding signal of -0.1 E-score.

AATGCCGC displayed a binding signal of 0.0861 E-score.

In turn, CACCCATC gave a binding signal of -0.15 E-score.

The sequence CCACAGAC displayed a binding signal of 0.012 E-score.

As for CATGGCTC, the binding signal was -0.111 E-score.

GTCGAACA: the binding signal is -0.00873 E-score.

AAATAAAA had a binding signal of 0.172 E-score.

CATGTATA came in with a binding signal of 0.29 E-score.

In the case of TAATGGCA, the binding signal worked out at 0.0365 E-score.

On to TAAGGACA, for which the binding signal is -0.221 E-score.

CGGGTATA yielded a binding signal of -0.0343 E-score.

The sequence ACGGGACG displayed a binding signal of -0.214 E-score.

Regarding AAGGCATC, the binding signal was 0.102 E-score.

CGTGAGAA returned a binding signal of 0.114 E-score.

The sequence CGACCCAG showed a binding signal of -0.197 E-score.

For the sequence ATGGACTC, the binding signal was -0.171 E-score.

Regarding GAGATTCA, the binding signal was found to be 0.0429 E-score.

In the case of CCAGACGG, the binding signal was -0.108 E-score.

As to CCCTACTC, the binding signal was -0.325 E-score.

The sequence AGCCTAAA gave a binding signal of -0.214 E-score.

The sequence CAGAAAGA returned a binding signal of -0.119 E-score.

AACACATG: the binding signal came to 0.0367 E-score.

On to ACCAATAC, for which the binding signal was -0.0446 E-score.

The sequence AAAGTCAA returned a binding signal of 0.0624 E-score.

In the case of CGCCACAG, the binding signal was -0.245 E-score.

With TAGTGTGA, the binding signal amounted to 0.0275 E-score.

In turn, TAGAATGA gave a binding signal of 0.211 E-score.

On to ACTCCCTA, for which the binding signal is -0.229 E-score.

CAATTGAG showed a binding signal of -0.00833 E-score.

Regarding CGTCATTC, the binding signal stood at 0.201 E-score.

GTTACGAA yielded a binding signal of 0.0713 E-score.

Consider GGCGGGAA, for which the binding signal is -0.248 E-score.

In turn, AAATTCTG came in with a binding signal of 0.235 E-score.

On to GCTACCTA, for which the binding signal is 0.243 E-score.

The sequence CTGCGATC registered a binding signal of -0.269 E-score.

For AGGTTGTC, the binding signal is -0.191 E-score.

For ACGGTCAA, the binding signal turned out to be 0.00563 E-score.

Consider AGTCGGGA, for which the binding signal is -0.217 E-score.

The sequence GCGCTGGA displayed a binding signal of -0.0459 E-score.

GTCGTAAC showed a binding signal of 0.0334 E-score.

For the sequence GACATTCA, the binding signal came to 0.041 E-score.

ATATCGCC returned a binding signal of 0.0826 E-score.

CAAGTCAG: the binding signal was -0.093 E-score.

CTCCCTTC came in with a binding signal of -0.352 E-score.

Sequence CTGTATGA came in with a binding signal of 0.0887 E-score.

In turn, CGGACGTA showed a binding signal of 0.194 E-score.

For the sequence CGACACGA, the binding signal is -0.089 E-score.

GCTTAATA: the binding signal amounted to 0.189 E-score.

In the case of AGCGTAGG, the binding signal is -0.121 E-score.

In turn, GAAAGTAA yielded a binding signal of 0.251 E-score.

For ATTGAGTC, the binding signal turned out to be 0.132 E-score.

For AACATAGC, the binding signal amounted to 0.168 E-score.

The sequence CAGCCCTG had a binding signal of -0.31 E-score.

In turn, GAACTTGC displayed a binding signal of 0.0534 E-score.

The sequence CATTATGA showed a binding signal of 0.257 E-score.

The sequence CTGCTCTA came in with a binding signal of -0.0572 E-score.

The sequence CCATGGGA showed a binding signal of -0.252 E-score.

As to GAACGTGC, the binding signal was -0.141 E-score.

Regarding CGTTCATC, the binding signal was -0.182 E-score.

As to CCGATGTA, the binding signal was 0.11 E-score.

As to CGACCGGA, the binding signal is -0.122 E-score.

ATGACAGG had a binding signal of 0.0863 E-score.

AAACTAAC gave a binding signal of 0.233 E-score.

For GAGGGTCC, the binding signal is -0.363 E-score.

The sequence GAATAAAA displayed a binding signal of 0.0162 E-score.

In turn, CCATGTGA registered a binding signal of -0.0861 E-score.

On to GCTAGCCC, for which the binding signal is -0.0268 E-score.

The sequence ACACCACG gave a binding signal of -0.12 E-score.

As for CGCCCGAG, the binding signal was -0.28 E-score.

As for AAGCTGCG, the binding signal is -0.0688 E-score.

Sequence CAGACGAC displayed a binding signal of -0.112 E-score.

AGTCAAGC: the binding signal came to 0.00916 E-score.

With ATGTTGTG, the binding signal was -0.104 E-score.

Take AGTAGGTA: the binding signal is 0.404 E-score.

Sequence ACTCGTCA yielded a binding signal of 0.0819 E-score.

AAGGCGTC displayed a binding signal of -0.207 E-score.

On to ATCCGTAG, for which the binding signal is 0.00597 E-score.

CCGGCGCC: the binding signal is -0.298 E-score.

Sequence GTACTAAC showed a binding signal of 0.148 E-score.

Regarding AAAGTAGT, the binding signal was found to be 0.312 E-score.

Sequence CATGGTGG came in with a binding signal of -0.31 E-score.

With TAGATAAA, the binding signal is 0.317 E-score.

GGCCCAGA yielded a binding signal of -0.124 E-score.

Regarding GCATTGAC, the binding signal was -0.133 E-score.

As for TAAAAGGA, the binding signal is -0.0508 E-score.

Turning to CTATAAGC, the binding signal came out at 0.113 E-score.

Sequence ACGGCACT had a binding signal of -0.0103 E-score.

In turn, GCGGATTA yielded a binding signal of -0.0791 E-score.

ACTCGTAG returned a binding signal of 0.199 E-score.

Consider GTTTGGTA, for which the binding signal was 0.258 E-score.

AAACGCAA returned a binding signal of 0.0994 E-score.

For the sequence CGGCCCCA, the binding signal is -0.345 E-score.

For AAGTTCTA, the binding signal came out at 0.272 E-score.

GGTGTCGA showed a binding signal of -0.128 E-score.

Regarding ATGAAGAA, the binding signal is -0.0853 E-score.

GAATCAGC: the binding signal was -0.101 E-score.

The sequence ATCTCATA registered a binding signal of 0.21 E-score.

For TCCGATAA, the binding signal is -0.0469 E-score.

Take AGGAGGGA: the binding signal was -0.222 E-score.

In turn, ACCGTCTG yielded a binding signal of 0.00482 E-score.

GGACCCTA showed a binding signal of -0.199 E-score.

On to TCGAAACA, for which the binding signal is 0.04 E-score.

Sequence GTGAAAGA registered a binding signal of -0.00825 E-score.

CCAGGGTC had a binding signal of -0.306 E-score.

With CCCAAGGA, the binding signal is -0.279 E-score.

In turn, AAAGCCCT displayed a binding signal of -0.156 E-score.

Regarding CACCCTAC, the binding signal is -0.176 E-score.

In the case of ATTCTAGC, the binding signal was 0.257 E-score.

For ACCGTTCA, the binding signal stood at 0.155 E-score.

In the case of ACCGAATC, the binding signal stood at 0.0528 E-score.

The sequence CGAAGAAG came in with a binding signal of -0.098 E-score.

Take CCGCGGAG: the binding signal was -0.183 E-score.

The sequence AAATCAGA showed a binding signal of 0.0767 E-score.

As for CGATCAAC, the binding signal was -0.0147 E-score.

Take CAGGAAGC: the binding signal is -0.243 E-score.

As for ACGGCGCT, the binding signal is -0.115 E-score.

The sequence ACCGTATG registered a binding signal of 0.0889 E-score.

AATTGCGG showed a binding signal of 0.17 E-score.

As for CAAGAAGG, the binding signal is -0.351 E-score.

On to ACAGGAAA, for which the binding signal stood at 0.0725 E-score.

Sequence CCTAGCAA returned a binding signal of 0.0634 E-score.

The sequence CATACTGG returned a binding signal of 0.0985 E-score.

In turn, TTCCGGAA registered a binding signal of -0.118 E-score.

Take TACCCGTA: the binding signal stood at 0.0835 E-score.

ACGATAAG: the binding signal was 0.194 E-score.

AAGTCGAG yielded a binding signal of -0.0999 E-score.

ATGATCAG displayed a binding signal of 0.134 E-score.

As to ACTGTTAA, the binding signal worked out at 0.09 E-score.

In the case of TTACGCAA, the binding signal was 0.181 E-score.

Consider ACCACAGT, for which the binding signal is -0.105 E-score.

Regarding GGTGCTAA, the binding signal is -0.18 E-score.

CGCTCACG: the binding signal is -0.352 E-score.

As for ACGCCTGG, the binding signal is -0.304 E-score.

As to AACGAAGG, the binding signal was -0.176 E-score.

Sequence AACACACG had a binding signal of -0.0778 E-score.

TCGGGGAA displayed a binding signal of -0.206 E-score.

With AATCCAGC, the binding signal stood at 0.0124 E-score.

Take AGATGAGG: the binding signal was -0.214 E-score.

Sequence ACTCAACT returned a binding signal of 0.0434 E-score.

The sequence GGAAGCGA yielded a binding signal of -0.209 E-score.

Turning to AATTTGCC, the binding signal worked out at 0.0434 E-score.

On to GGACCGGA, for which the binding signal was -0.0399 E-score.

Consider GAGCCATA, for which the binding signal stood at 0.0249 E-score.

In turn, GGCAGTAC showed a binding signal of -0.0236 E-score.
